Measurements from the supplement of paper PMC10126150.
Sequences with one replicate were seen in a single cluster, so their values are uncertain.

Test system: ATP
Experiment: switch fluorescence ratio, 500 uM ATP over buffer (Cy3 cluster intensity, sum of 5 cycles each) (fold (ratio)); higher = stronger signal-on switching upon ATP binding; sequences stand for … in TCGTCGGCAGCGTCAGATGTGTATAAGAGACAGTTTTTTTTTTTTTTTTTTTTTTTTT…TC
Conditions: aptamer strand: ATP DNA aptamer (quencher-CACCTGGGGGAGTATTGCGGAGGAAGG + anchor), 100 nM annealed; ATP concentration: 500 uM; one replicate
Procedure, shortened: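 Per cluster, summed Cy3 intensity from the target cycles was divided by that from the buffer cycles to give the fluorescence ratio, then averaged per switch-domain sequence. Clusters outside 100-1000 RFU were excluded. The Cy3-labelled switching-strand clusters, on a modified Illumina MiSeq flow-cell, were annealed to 100 nM quencher-labelled ATP aptamer and imaged in selection buffer, then after 15 min with 500 uM ATP at 22 °C, for five cycles with NaOH stripping and re-annealing between them.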
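Note: ATP exposure 15 min at 22 °C before imaging.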

Sequence | switch fluorescence ratio
CTCCCCCATA | 2.22
GATGGTGGGT | 1.02
GATGACATGG | 1.02
TATGTAGCGT | 1.03
TGACAACTTT | 0.979
ACTTGCCCCT | 1
CAATTTGCTA | 1.02
TCGAGCGGGA | 0.998
GTTTCAGGAG | 1
TCGCTACATA | 1.14
CTTCTCATGT | 1
CTATACGAT | 1.01
TTGTTTGTTA | 0.972
TTAGTTTCGT | 0.989
ACATTAATCA | 1.08
TGCAATCATT | 1.07
TTAGGAGTAT | 1.01
TGACACTTC | 0.99
CGGTAAGATA | 0.993
GGCACTTTCT | 1.03
TGCGGCTGTA | 1
GATACTGTGG | 1
AGGAGTGCTT | 1.01

Sequence | switch fluorescence ratio
TCGGCCACGT | 1.01
TTTATAAACG | 0.966
TATACTGTCA | 1.11
TAATAAAGGA | 1.03
GTGGGATTGT | 0.969
TAATGGCCAT | 1.02
TCACTC | 1.05
TAGCTATATC | 1.74
TACGGTGAG | 1.02
ATAAAAGAGT | 1.03
GGATATGAAG | 1.02
ATCCAGTGGC | 1.1
CCATTTGGAC | 1.01
GGGACAATGG | 1.03
CAAGATGCTG | 0.99
CTTATCGGTG | 1.02
GGTCAATGC | 2.3
GTTGATATAA | 0.962
ACATAGAGGG | 1.04
AAAACTGGG | 1.17
AAAGCGTTGT | 0.989
GCTGGTTGTG | 1
GGCATCCGGG | 0.941

Sequence | switch fluorescence ratio
AATATGCCTA | 0.964
GGCAGATTAC | 1.13
AGCGCAGCAT | 0.969
GGGAAATCCC | 1.26
TATAGATAGT | 1.02
GTTTGTTGGG | 0.992
GGGCATGGCC | 0.982
ACTCAGGAG | 0.999
TCTCGGCCCG | 1
TCCATACAGG | 1.15
TTACATTGAC | 1.01
GCCGACCTAT | 1.02
CGATACTGAT | 1.02
TTAGATTAGT | 0.991
GCTTTAGTAG | 1.07
GCTTAAGCTC | 1
CGCCTCTTAC | 2.14
TATCAAGGT | 0.965
TTGAGGGAAC | 1.02
TGGCTCTGCG | 1.02
ATCGCCTACT | 1.04
GACATCAGAA | 1.03
GTCTGGGTCA | 0.996

Sequence | switch fluorescence ratio
CTAGGGTCCG | 1.01
ATAAGCAGGG | 1.03
TTGTGAAGA | 0.995
GCACTGCCCA | 1.06
GCTCGGGGCC | 1.02
AGTGACCGT | 1.01
GCGGTACGG | 1.06
GAAATGCAAG | 1.03
TGGGGGCCTA | 1.04
CAGCAGATA | 1.1
CTTAGAAACT | 1.01
GAGTTAGTTT | 0.997
ATTGGATCCA | 1
GCCTGAACAT | 0.986
ATAGTAGGTG | 0.997
CATGGATGTA | 1.01
ATTGGAATCC | 1.06
TGGACGAGCA | 1.07
GATGGTACGT | 1.03
ATATCAGAT | 0.984
CTGTTCCCAT | 1.06
TACACGAACT | 1.45
CGACAGTATA | 1.16

Sequence | switch fluorescence ratio
GCTCGACTTG | 1.04
GGCCTGACTT | 1.01
TGCACGTATG | 1.04
AAGGAGCGGG | 1.14
TGTTACCCCG | 0.98
TATGGACT | 0.998
CTCTAGATGT | 1.05
GGGAAAGAAA | 0.981
ACGTACAGGG | 1.51
CGGAGGAC | 1.07
ATCGGGATT | 0.994
GCTTGGGAAG | 0.975
GCTGGCGATG | 0.979
TCGCGCAGGG | 1
AGTCCATCCA | 1.04
GGGTAGAGTA | 0.99
CTTAAGGGGG | 0.989
CCCCCCCTGA | 1.52
TTTCGGCTC | 1
CCCGTTCAAG | 0.973
AACCGCTTAA | 1.35
GGTGTTTTCT | 1.01
CGCGTAAACT | 1.08

Sequence | switch fluorescence ratio
GGACACGTTC | 1.06
CTATGTAAGA | 0.987
GTTATGGCTA | 0.995
CTTACCCGGT | 1.06
ATGTGTCT | 1.04
TAAGATCATG | 0.984
TTTTGTACA | 1.01
TTACGTTGAT | 0.974
TATTATGCAA | 1.12
TCCAATTATT | 0.987
CTATTGTACT | 1.02
AGATGCAATT | 1.07
AACAAGTGTC | 1.1
CTCCCAGTCG | 1.33
TTTAATTCAG | 0.985
TTGTCTATTT | 0.975
TCTAAATCTA | 0.998
TTCAGATTCC | 1.04
AGGAAGACGT | 1
CGATCGCGTA | 1.14
AAATTTGTCA | 1.02
TAAAACCAAC | 1.13
GATTTGCTA | 1.01

Sequence | switch fluorescence ratio
CTTCCCACTA | 1.11
ACTTACGGG | 1.44
GTTGTATGCT | 0.94
TGGTGCGATC | 1.06
AGGTTGGTAG | 0.984
TGGATCCCGA | 0.952
CCTGGTCCAT | 0.938
ATTGCGGCCG | 0.976
TTCGATCTAA | 1.01
AGCCGACCGC | 1.35
CCTTGTAGG | 0.965
CTGTGAAACT | 1.02
GCGAAGACTT | 0.98
GGTTACCG | 1.01
GCGCTATAGG | 1.08
CGGCCAAAAC | 1.39
TTGGAGGTGT | 1.04
CGGGTCTCGC | 0.967
TTGCGACGGC | 0.992
GGGTAAGATA | 0.994
